Data: publication PMC6919601, “Identification of Plasmodium dipeptidyl aminopeptidase allosteric inhibitors by high throughput screening” (PLoS ONE, 2019)
About 230 (0.21%) of roughly 110,000 compounds showed an effect of 50% or more. The list shows a part of the results.

These compounds were tested against DPAP1 (Plasmodium falciparum, UniProt Q8IIJ9) (assay: primary screen, percent inhibition; read by cleavage of a fluorogenic dipeptide substrate; higher = more effect of the substance).
Set-up: species or system P. falciparum D10 trophozoite lysates; single well
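Also: 30 min substrate incubation versus DMSO and 10 µM JCP410 controls.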

Sequence of DPAP1 (Q8IIJ9 whole entry, looked up): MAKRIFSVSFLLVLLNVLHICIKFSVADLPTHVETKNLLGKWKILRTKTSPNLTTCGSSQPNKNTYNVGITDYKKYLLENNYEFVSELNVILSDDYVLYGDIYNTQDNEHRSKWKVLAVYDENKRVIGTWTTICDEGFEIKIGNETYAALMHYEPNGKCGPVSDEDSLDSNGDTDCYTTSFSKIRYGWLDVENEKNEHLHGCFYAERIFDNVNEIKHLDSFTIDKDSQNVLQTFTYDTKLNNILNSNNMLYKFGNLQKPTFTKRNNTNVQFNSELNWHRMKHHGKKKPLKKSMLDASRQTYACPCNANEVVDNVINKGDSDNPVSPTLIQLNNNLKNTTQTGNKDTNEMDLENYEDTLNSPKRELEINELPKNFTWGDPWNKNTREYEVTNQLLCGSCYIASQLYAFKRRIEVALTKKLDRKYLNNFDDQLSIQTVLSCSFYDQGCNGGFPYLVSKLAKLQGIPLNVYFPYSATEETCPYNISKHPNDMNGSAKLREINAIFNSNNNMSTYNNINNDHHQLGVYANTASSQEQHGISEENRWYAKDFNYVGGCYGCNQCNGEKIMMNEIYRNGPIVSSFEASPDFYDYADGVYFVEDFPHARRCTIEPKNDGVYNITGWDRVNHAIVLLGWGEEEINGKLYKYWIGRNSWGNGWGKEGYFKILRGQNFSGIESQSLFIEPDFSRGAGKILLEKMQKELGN

Structure (SMILES) | % Inhibition @ 10 uM
CC1CCC(N2CCN(CCOCCO)CC2)CC1 (centres unmarked) | -7.68%
CCOc1ccc(CCNCc2c(C(=O)O)c(C)n(Cc3c(F)cccc3Cl)c2C)cc1 | 1.41%
COc1ccc(-c2csc(/C(C#N)=C/c3ccc(C)cc3)n2)cc1 | 0.467%
N#Cc1c(-c2ccc(Cl)cc2)cc(-c2ccccc2)nc1SCc1ccccc1 | -3.88%
COc1ccc(/C=C2/NC(=O)N(Cc3ccc(F)cc3)C2=O)cc1O | 5.83%
O=C(O)CCC/N=C/c1c(O)[nH]c2ccccc12 | 3.04%
CC(C)n1c(SCC(=O)NCc2ccccc2)nc2c(oc3ccccc32)c1=O | 0.0695%
COc1ccc(C)cc1N(CC(=O)NC1CC1)S(C)(=O)=O | 2.5%
Cc1ccc2c(cnn2C(=O)CCCC(=O)NCc2cccnc2)c1 | 11.1%
C=CCNC(=O)c1onc(C)c1Cl | -1.7%
CSc1ncccc1C(=O)N1CCN(S(=O)(=O)c2ccc(F)cc2)CC1 | -5.03%
COc1ccc(-c2cc(C(F)(F)F)n3ncc(C(=O)NCc4cn(C)nc4C)c3n2)cc1OC | 2.32%
CC(C)c1ccc(/C=C/C(=O)Nc2cccc(Cl)c2)cc1 | -3.71%
CCCN1CCC(N2CCN(CCO)CC2)CC1 | 2.5%
O=C1CC(Cc2ccc(Cl)cc2)C(=O)N1c1ccc(F)cc1 (centres unmarked) | 3.65%
CC(=O)Nc1cccc(NC(=O)c2ccc(C(=O)Nc3cccc(NC(C)=O)c3)nc2)c1 | 5.31%
O=C(Nc1cccc(Cl)c1)N1CCN(c2ccc(F)cc2)CC1 | -2.03%
CC1=C(C)CC(C(=O)Nc2ccccc2Br)C(C(=O)O)C1 (centres unmarked) | 6.97%
N#C/C(=C\c1ccc(O)cc1)c1nc2ccccc2[nH]1 | -2.18%
Cc1cccc(C)c1NC(=O)Cn1c(=O)sc2ccccc21 | 4.44%
CCOc1ccc(NC(=O)/C(C#N)=C\c2c(C)[nH]c3ccccc23)cc1 | 2.05%
Cc1ccc(-c2cn3nc(N4CCCC(C(=O)NCCc5ccccc5)C4)sc3n2)cc1 (centres unmarked) | 8.36%
O=C(Nc1cccc(C(F)(F)F)c1)c1sc(-c2ccccc2)nc1-c1ccc([N+](=O)[O-])cc1 | -2.15%
CCc1ccccc1OCCN(CC)CC | 4.57%
Cc1cccc(OCC(=O)Nc2cc(Cl)cc(Cl)c2)c1 | -5.95%

Structure (SMILES) | % Inhibition @ 10 uM
Cc1ccc(S(=O)(=O)N2CCC(C(=O)NC3CCCCC3C)CC2)cc1 (centres unmarked) | 3.88%
CC(NC(=O)C1CCN(c2nc3ccsc3c(=O)s2)CC1)c1ccccc1 (centres unmarked) | 2.17%
CO/C(O)=C1\C(C)=NC2=C(C(=O)CC(c3cccs3)C2)C1c1ccc(OC)cc1OC (centres unmarked) | 0.238%
CCCCC(=O)Nc1cccc(-c2cn3ccsc3n2)c1 | 3.99%
CC(CNCc1c(C(=O)O)n(C)c2ccccc12)c1ccccc1 (centres unmarked) | -1.44%
O=C(NCCc1ccc(Cl)cc1)C(NS(=O)(=O)c1cccc2nsnc12)c1ccccc1 (centres unmarked) | -3.23%
CCCCN1C(=O)c2[nH]nc(-c3ccccc3O)c2C1c1ccc(O)c(OC)c1 (centres unmarked) | -1.35%
Sc1nc2ccccc2n1C1CCCCC1 | 12.2%
CC(=O)c1cc2c(C)cc(=O)oc2cc1O | -5.26%
COc1ccc(S(=O)(=O)NCc2csc3c2CCCC3)cc1F | 6.64%
Cc1cc(C)c(S(=O)(=O)NCc2csc(-c3ccccc3)n2)cc1C | 0.953%
COC(=O)C1=CN(C)C=C(C(=O)OC)C1c1cccc(O)c1 | -1.48%
CCN1CCN(C(=O)C2CCN(S(=O)(=O)c3ccc4[nH]c5c(c4c3)CCCCC5)CC2)CC1 | -2.25%
O=C(O)Cn1c(SCCOc2ccccc2)nc2ccccc21 | -12.1%
COc1cc(C2SCC(=O)N2CCN2CCCCC2)cc(OC)c1OC (centres unmarked) | 2.36%
CCOc1ccc(C(=O)C2=C(O)C(=O)N(c3ccccn3)C2c2ccccc2F)c(C)c1 (centres unmarked) | 6.27%
CCOC(=O)C1=C(C(F)(F)F)Nc2ncnn2C1c1ccc(C)cc1 (centres unmarked) | 1.73%
c1ccc(-c2nonc2-c2ccccc2)cc1 | 1.7%
Cc1ccc(NC(=O)c2ccc([N+](=O)[O-])cc2Cl)cc1C | 4.03%
COCCCNC(=O)c1cc(S(=O)(=O)N2CCCC(C)C2)ccc1F (centres unmarked) | -3.78%
CC(C)(C)NC(=O)C1CCC(CNS(=O)(=O)c2cccc3nsnc23)CC1 (centres unmarked) | -8.02%
O=C(c1cccc(Br)c1)N1CCN(S(=O)(=O)N2CCCCC2)CC1 | -2.05%
c1ccc(-c2ccc(-c3[nH]c(-c4c[nH]c5ccccc45)nc3-c3ccccc3)cc2)cc1 | -0.274%
CC(C)OCCCNC(=O)c1nnc(-c2cccc(Cl)c2)o1 | -0.602%
O=C(Nc1cccnc1Cl)C1CC(c2ccc(F)cc2)=NO1 (centres unmarked) | 1.62%

Structure (SMILES) | % Inhibition @ 10 uM
Cc1cc(C)cc(NC(=O)C2CCN(S(C)(=O)=O)CC2)c1 | 2.13%
CC(=O)Nc1ccc2nc(SCC(=O)Nc3ccccc3)sc2c1 | 0.983%
COc1ccc2cc3c(NC(=O)COc4cccc(C)c4)[nH]nc3nc2c1 | 8.81%
CCc1ccc(CNCc2cccs2)cc1 | -4.67%
Cc1ccccc1-c1nc(CS(=O)CC(=O)NC(C)C)c(C)o1 (centres unmarked) | -1.05%
CC(=O)c1cnc(Nc2nc(-c3ccccc3)c3cc(Cl)ccc3n2)nc1C | -3.76%
COc1cccc(NC(=O)COc2cccc(C)c2)c1 | -6.67%
CCCCOc1ccccc1NC1=NS(=O)(=O)c2ccccc21 | 2.92%
Cc1ccc(-c2cc(C(=O)NCCCn3ccnc3)no2)cc1 | -3.33%
OC(COc1ccc(C23CC4CC(CC(C4)C2)C3)cc1)CN1CCOCC1 (centres unmarked) | 0.878%
CCCC1Nc2ccc(C(=O)O)cc2C2C=CCC12 (centres unmarked) | 11%
CCC(=O)N(CCc1ccccc1)C1CC(=O)N(c2ccccc2)C1=O (centres unmarked) | 3.8%
Cc1ccc(S(=O)(=O)c2c(O)nc3cc(C(=O)N4CCOCC4)ccc3c2O)cc1 | -0.264%
COc1ccc(NC(=O)c2sc3nc4c(cc3c2N)CCCC4)cc1OC | 3.24%
CSC1=NSC2=NC(=O)/C(=C\c3cc(C)n(Cc4ccccc4)c3C)C(=N)N12 | 3.48%
CCOc1c(OC)cccc1C1CC(=O)Nc2c1c(=O)n(C)c(=O)n2C (centres unmarked) | -4.81%
O=C1OC(c2cccc(Br)c2)=N/C1=C\c1cccnc1 | -0.0894%
O=c1/c(=C\c2ccccc2)sc2nc(-c3ccccc3Cl)nn12 | 0.128%
CC(C)Oc1ccc(OCCSc2nc3c(N)ncnc3[nH]2)cc1 | 2.37%
Cc1nc2ncnn2c(C)c1CCC(=O)NCCC1=CCCCC1 | -2.25%
Cc1ccc(C2CC(=O)c3cnc4c(-c5ccccc5)c(C)nn4c3C2)cc1 (centres unmarked) | -9.16%
CC(C)C[C@H](NC(=O)OC(c1ccccc1)c1cccc(C(F)(F)F)c1)C(=O)NCC#N (some centres unmarked) | 1.71%
CC(=O)c1ccc(NC(=O)CC2COc3ccccc3O2)cc1 (centres unmarked) | 0.381%
Cc1nc2ccc(S(=O)(=O)NC(CC(C)C)C(=O)NCCC3=CCCCC3)cc2s1 (centres unmarked) | -4.97%
Cc1cccc(C2=N/C(=C/c3cccc(Br)c3)C(=O)O2)c1 | 2.92%

Structure (SMILES) | % Inhibition @ 10 uM
Nc1ccccc1Nc1nc(OC(C(F)(F)F)C(F)(F)F)nc(OC(C(F)(F)F)C(F)(F)F)n1 | 4.89%
CCOc1cccc(C(=O)Nc2ccc(NC(=O)c3ccccc3Br)cc2)c1 | 0.36%
CC1=NN(C(=O)c2ccc(OC(F)F)cc2)C(O)(C(F)(F)F)C1 (centres unmarked) | 6.37%
CC(C)(C)S(=O)(=O)c1ccsc1S(C)(=O)=O | -5.5%
CCc1ccc(Oc2nc3ccccn3c(=O)c2/C=C(\C#N)C(=O)NCCCOC)cc1 | 1.19%
Cc1cc(C)n(-c2nnc(C)n2/N=C/c2ccc(-c3cccc(Cl)c3)o2)n1 | 2.56%
Cc1ccc(-c2cc(C(F)F)n3ncc(C(=O)NCCN4CCOCC4)c3n2)cc1 | 4.08%
O=C(NC1CCc2ccccc21)C1CCCN(S(=O)(=O)c2ccc(Cl)cc2)C1 (centres unmarked) | -1.07%
CC(=O)N1N=C(c2ccc(Br)cc2)OC1c1ccc(F)cc1 (centres unmarked) | 2.96%
C=CCN1C(=O)C(C(=O)N2CCOCC2)C2CC1(C)Oc1ccccc12 (centres unmarked) | -5.34%
O=C(Cc1cccc2ccccc12)Nc1c(-c2ccccc2)nc2ccccn12 | 6.64%
CCOC(=O)N1CCN(c2c(NCCN3CCCC3)c(=O)c2=O)CC1 | 0.277%
O=C(NCc1ccco1)c1nc(-c2ccc(-n3cccc3)cc2)no1 | -4.42%
COc1cccc(CNC(=O)C2CCN(S(=O)(=O)c3ccc(Br)s3)CC2)c1 | -0.668%
Cc1ccc(S(=O)(=O)N2CC=C(c3c(C)[nH]c4ccccc34)CC2)cc1 | 2.34%
O=C(Nc1ccc(F)cc1)N1CCN(c2cccc(C(F)(F)F)c2)CC1 | -3.04%
COc1cccc2cc(-c3nc(C)no3)c(=O)oc12 | 4.16%
CCOc1ccccc1N(CC(=O)Nc1ccc(OC)c(Cl)c1)S(C)(=O)=O | -2.66%
CC1CCN(CCCNC(=O)C2CCC(CNS(=O)(=O)c3ccccc3)CC2)CC1 (centres unmarked) | 2.35%
Cc1ccccc1-c1nnc2sc(NC(=O)CCc3ccccc3)nn12 | 4.46%
Cc1ccc(Cn2c(OCc3nc(N)nc(N4CCOCC4)n3)nc3c2c(=O)n(C)c(=O)n3C)cc1 | 3.81%
CC(=O)N1CCN(c2ccc(NCc3ccc(OCc4cccs4)cc3)cc2)CC1 | 4.08%
Cc1cccc(NC(=O)c2ccc3cc(C(=O)Nc4cccc(C)n4)ccc3c2)n1 | -3.12%
